Reference: paper PMC10726135
Some of the results follow. At the low end of the ranking the order means little. The protein was read in a cell extract, so binding may be indirect.

Molecular target: T1, HNF4alpha8 (COS-7 nuclear extract) (UniProt P41235-5)
T1 sequence: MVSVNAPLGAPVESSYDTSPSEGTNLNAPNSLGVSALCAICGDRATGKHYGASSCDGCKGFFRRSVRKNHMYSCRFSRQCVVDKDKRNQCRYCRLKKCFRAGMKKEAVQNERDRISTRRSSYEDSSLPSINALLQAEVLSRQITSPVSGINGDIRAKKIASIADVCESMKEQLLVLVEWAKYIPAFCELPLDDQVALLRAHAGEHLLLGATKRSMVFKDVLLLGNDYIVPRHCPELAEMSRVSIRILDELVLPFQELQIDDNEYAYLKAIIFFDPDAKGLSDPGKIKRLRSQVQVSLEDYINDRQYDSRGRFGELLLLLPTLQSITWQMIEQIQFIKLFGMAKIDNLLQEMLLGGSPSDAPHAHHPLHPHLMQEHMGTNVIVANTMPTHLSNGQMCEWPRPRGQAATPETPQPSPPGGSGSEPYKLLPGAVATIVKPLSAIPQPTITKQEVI
Test: protein-binding microarray
Conditions: COS-7 nuclear extract on double-stranded Agilent 4x180k PBM; binding buffer, salt, pH and temperature not given; high values mean tight binding; double strand, one strand shown; sequences stand for … in …GCCTAGGGAGATTAGAGTATCGGTCGA

| Sequence | binding signal (log2 normalized intensity) |
| --- | --- |
| GTGACCTTAGACCCCTGAATAGGTCTTGGA | 3.72 |
| ATATTATCATTGCCTCTGGTATGCAGAAAA | 1.52 |
| GTCTGTGTTCACATAGGGGCCTTTAGCACC | 1.52 |
| AATCTGCAGCCGCCGGAGAATTAAACTGCC | -1.38 |
| AGGATGAGAATCCACCTGCCTGCTTGGCCT | -1.42 |
| GGAATGCTATTTGCATTGACACAACCCAAC | -1.32 |
| GCAGTGATCAGTGTTGAGAATCCCTCCCCT | 3.51 |
| TGGCATTCTTGAGCTACCGCCTGAACCTTG | 2.81 |
| AACCCTGGCCACTCCCTGATAGAGAACAAG | -1.32 |
| TTTGCAACCTTTGATAACCTACAACCTTCT | 1.19 |
| AGGCTGAAGGGAAGCTCTGGGAGTGCCCTT | 2.63 |
| AGAGAAACAAATCTGCTTTCTACCCTGAGG | -1.15 |
| CTGCTAACAGATAAAGGGTGGTAAAGATGT | 0.032 |
| CACAGAGCAAAGGTCATGCATAGAAGTATG | 4.43 |
| TGTCTCACCTCGCTATCACCCCGATAAGGA | 3.03 |
| GGGCTCAAACAATCCTCCCACCTCAGCATC | 1.23 |
| TCCCCACCTTCCATTACCACATTCTCACCA | 1.22 |
| CCAGTTGGTGGGTCAAGGTGCAAAGAGATG | 2.79 |
| CTTTGATAGCCAAGCCAACCAGGAGAATTT | 2.31 |
| CTTTAACGACCTTTGGACTTGAATTATCCT | 8.83 |
| CTAACCTTGAGGAGCCCTATCCGCAGCTGC | -1.39 |
| TAAAGTATGTGGTGGGTGTGGTGATGGCAG | 1.01 |
| TTACACTGGCTGCCCTGGGGATCAAAGCGT | -0.422 |
| TTGACTCTTCCCATCTAACTGCCCCTGATA | 4.03 |

| Sequence | binding signal (log2 normalized intensity) |
| --- | --- |
| TATCCAGTCAATCCCGTGGACTTTGCCTGC | 7.09 |
| GAACATCTGATTTCCCCGTCCCAAGCTGAG | 3.49 |
| GTCAACAGCCAGCCTCAAAGATCAAAGGTA | 3.25 |
| CAAAGGGCTTATTTTAGGAGCCTCCAATCA | -1.31 |
| GGGCCCTGACCTCAAGTGACCTTTGACCTC | 12 |
| GAACAAAGGTTGGTGTGAACCAGGGTTAAG | 1.59 |
| AAGTTCAAGTAGATAAAATCAAACAGATGT | 0.359 |
| AAAAGTATGTCATAATGTACTCCACTGTGC | 0.829 |
| TGAACTATTGAACCACCAGATAGAGCTTTT | 0.654 |
| GCATTAGTTATATCTTACCTCCTTCTCCCC | 3.09 |
| GATACAGTTATGAAAAGAAACAGCCAAAAG | -1.34 |
| TTGAGAGAGATTAAAGGTCAAGCCCAACCA | 4.41 |
| TTATTGATAACCCTATAAGGTAGAATCTAT | -0.743 |
| GACCTGTATCTTGTGGTGACCTCTTATCTC | 3.97 |
| AACAACCCATCCTTGACACATCTGATTAGA | -1.31 |
| TGTTGTTGATTTAACATTTGTGATCTGGCA | 1.59 |
| CTGCAGAGAACAGCAGCTATCAGTGGTCCG | 1.36 |
| TGGACAGTGTCTGACTAGAGTGGAGTGAAG | -1.21 |
| TTCCTGACCCCTCCTCCCCCCGCCGCATCT | 6 |
| CCTTGCAATGCTGGAGGGACTGTGATGAAG | -0.962 |
| CGATAATAGAGATTGCTTAATGCAAACTCC | -1.38 |
| GTGACCAAGAATGTCTAACCTCCTGGGAAT | -1.27 |
| ACCTTTGACCCTTCTCTGGGAGAAAGGGAG | 3.86 |
| GCAAGGGCCCCCACTAGAGAGACCGTCCCT | 2.63 |

| Sequence | binding signal (log2 normalized intensity) |
| --- | --- |
| ACATTCTTTAGCATATTACACCTGTAGCTT | 0.621 |
| GACAGGGTAATTTACAGAACTCTTCGAAGA | -1.16 |
| CTTGGATCCTCAGGGTTCATAGATGATAGT | 1.42 |
| ATCACTCAAGAAATGGCAGTTTTAAGAGCT | -1.34 |
| AGTTTGAACTTTGACTTATTTAGTAGTGGC | 4.66 |
| TGAAAGCTGCTTCCCAGTTGCTCTGGAGTG | -1.28 |
| ATGCTTCAGTGAGCCTTGACCTTCATGCTA | 2.91 |
| GCTTCAGGAGTCCACTGTGTTCTTGTTTGC | 1.95 |
| TGGGACTTAATCCTTGTCTGTTTGGCCTTA | 2.34 |
| ACACAAAGACATTGCCTGGCATTATCAGTG | -1.12 |
| TGTGTTGGCAAGAGATCTGCAGGGTTAAAT | 1.03 |
| AGAGGGGGTTTGTTTTTTGCCCTTTGTACC | 8.63 |
| GATTGGACTCTGCACTCCAGCCTGGGTGAC | 3.96 |
| ATGTTGACCCGAGTGCCCTTTGGCAAACAG | 3.44 |
| GATCTCCGTGTTTGGAATTGTGTCACTCCC | 1.65 |
| CCACAGCAGAAGGCAACAGCTCTGGAGGAT | -1.31 |
| GGCATAGTTGCATATCTGGAATTTCAAAGG | 1.45 |
| CACAAGGAATGCCCTTATCTCCCAGCCACC | 1.75 |
| AGTTGGTATTTAGTAAATATTAGGCAAGCT | -1.28 |
| GCTCAAGCCTGTTCCGACCTTAGTACTCTG | 4.95 |
| CATAACTCAGCGGGAGGCAAGATAAGGGTA | -1.27 |
| CTCATTCTGATATGCACTGTCAGTTTTTCC | 1.32 |
| TTGTACATGGGAATAGACATTCCAGAAATA | -0.386 |
| CCTCTGTAGGGCAGCAGCCGGCCTCTTAAC | -1.35 |

| Sequence | binding signal (log2 normalized intensity) |
| --- | --- |
| CTGGAGGATAAAGTTCAAGTAGATAAAATC | 2.11 |
| CTCTGATCCTAGTCTTTGCCCCACTGCAAG | 3.15 |
| CTGACTAAAGTTCATTGCTTTGAGCATGAG | 2.19 |
| GTGACTTGCTCAGTGTCACAGACTTAGCAC | 0.789 |
| CTTTGGAGGGAGCCAGGTTATGCAGAGCTT | -1.26 |
| TCACCAGATACTGAATCTCCCAGTGCTTTG | -1.25 |
| GTGTCTTATCTTCCTCTGGCATCTGGTCAG | 2.09 |
| CAGTCAGTGAGACGTTCCAAACCGGTCTTT | 0.804 |
| CTTTACCCCCATTTGGTAATGGGCCCCCAT | 4.85 |
| GAAAAATGAATAACTTGAATTGATTGCCAA | -1.02 |
| CCAGGTGGCTGCATCCTTCTCCTCCCCTCC | 3.45 |
| TACAGCTCATTAATCATCCGTCACCCAGAC | -0.0904 |
| AACGGCCCAGGGTTAGAGGATGACCTTCCC | 3.71 |
| GTTGACCTTTAGTCTCTAGCCCCGCCCAGA | 5.33 |
| TCAGTGTTTTCACTGCTGGGTTTCTTCCCT | 1.04 |
| TGATTACCAGACAAGATCAATCAATTTACC | -1.2 |
| CTTTCTAATCTCAAAGTGTCAGTCCAGAGT | 1.8 |
| CGCTTGAGCCTGGGAGGCAAAGGTTGCAGT | 3.22 |
| GGCGGGGAGAGGGAAGAGTCTTCTCTTGAC | -1.4 |
| GATAAGAAAAACTGAGCTTTAGATAGCTGT | -1.26 |
| CTGAAGTGGCCCAAGATGGAGATGAGAAAC | -1.24 |
